In patent US12286455B2, “Anthelmintic depsipeptide compounds” (BOEHRINGER INGELHEIM ANIMAL HEALTH USA INC., priority 2015, dated 2025):
Some entries share one result that the patent states for a list of compounds. For at least one compound, name, drawing or mass did not settle the structure.

Columns and labels:
Haemonchus contortus = test: Method A: development of L1 Haemonchus contortus larvae in microtitre plate; conditions: for EC50: read-out: median EC50, assessed at the 4 day time point; for median MIC90: assessed at the 4 day time point
[1] = system: Microfilaria of Dirofilaria immitis; test: Method B: survival of microfilaria of Dirofilaria immitis in microtitre plate; conditions: survival of microfilaria at 72 hours; read-out: median EC50
Ctenocephalides felis = test: Method C: activity against fleas following ingestion of treated bovine blood; conditions: adult fleas fed treated bovine blood, assessment at 72 hours

| SMILES | EC50 (Haemonchus contortus) | EC50 [1] | mean EC50 (Ctenocephalides felis) | median MIC90 (Haemonchus contortus) |
| --- | --- | --- | --- | --- |
| CC(C)C[C@H]1C(=O)O[C@H](C)C(=O)N(C)[C@@H](CC(C)(C)F)C(=O)O[C@H](Cc2ccc(C3CCOCC3)c(F)c2)C(=O)N(C)[C@@H](CC(C)C)C(=O)O[C@H](C)C(=O)N(C)[C@@H](CC(C)(C)F)C(=O)O[C@H](Cc2ccc(C3CCOCC3)c(F)c2)C(=O)N1C [Compound 31-18] | < 100 nM | < 100 nM |  |  |
| CN1C(=O)COC(=O)[C@H](CC(C)(C)C)N(C)C(=O)[C@@H](Cc2ccc(C3CCOCC3)cc2)OC(=O)[C@H](CC(C)(C)F)N(C)C(=O)COC(=O)[C@H](CC(C)(C)C)N(C)C(=O)[C@@H](Cc2ccc(C3CCOCC3)cc2)OC(=O)[C@@H]1CC(C)(C)F [Compound 7-42] |  | < 100 nM | 10-50 ppm |  |
| C[C@H]1OC(=O)[C@H](CC(C)(C)C)N(C)C(=O)[C@@H](Cc2ccc(N3CCOCC3)cc2)OC(=O)[C@H](CC(C)(C)F)N(C)C(=O)[C@@H](C)OC(=O)[C@H](CC(C)(C)C)N(C)C(=O)[C@@H](Cc2ccc(N3CCOCC3)cc2)OC(=O)[C@H](CC(C)(C)F)N(C)C1=O [Compound 6-32] |  | < 100 nM | 50-200 ppm |  |
| CC(C)C[C@H]1C(=O)O[C@H](Cc2ccc(C3CCOCC3)c(F)c2)C(=O)N(C)[C@@H](CC(C)C)C(=O)O[C@H](C)C(=O)N(C)[C@@H](CC(C)C)C(=O)O[C@H](Cc2ccc(C3CCOCC3)c(F)c2)C(=O)N(C)[C@@H](CC(C)C)C(=O)O[C@H](C)C(=O)N1C [Compound 31-27] | < 100 nM | < 100 nM |  |  |
| CC(C)C[C@H]1C(=O)O[C@H](C)C(=O)N(C)[C@@H](CC(C)(C)F)C(=O)O[C@H](Cc2ccc(N3CCOCC3)c(F)c2)C(=O)N(C)[C@@H](CC(C)C)C(=O)O[C@H](C)C(=O)N(C)[C@@H](CC(C)(C)F)C(=O)O[C@H](Cc2ccc(N3CCOCC3)c(F)c2)C(=O)N1C [Compound 30-18] |  | < 100 nM |  | less than 0.1 μM |
| CC(C)C[C@H]1C(=O)O[C@H](Cc2ccc(N3CCOCC3)cc2)C(=O)N(C)[C@@H](CC(C)(C)F)C(=O)O[C@H](C)C(=O)N(C)[C@@H](CC(C)C)C(=O)O[C@H](Cc2ccc(N3CCOCC3)cc2)C(=O)N(C)[C@@H](CC(C)(C)F)C(=O)O[C@H](C)C(=O)N1C [Compound 6-19] |  |  | 10-50 ppm |  |
| CC(C)C[C@H]1C(=O)O[C@H](Cc2ccc(N3CCOCC3)cc2)C(=O)N(C)[C@@H](CC(C)C)C(=O)O[C@H](C)C(=O)N(C)[C@@H](CC(C)C)C(=O)O[C@H](Cc2ccc(N3CCOCC3)cc2)C(=O)N(C)[C@@H](CC(C)C)C(=O)O[C@H](C)C(=O)N1C [emodepside, reference compound] |  |  | 10-50 ppm |  |
| CC(C)C[C@H]1C(=O)O[C@H](Cc2ccc(OC(F)(F)F)cc2)C(=O)N(C)[C@@H](CC(C)C)C(=O)O[C@H](C)C(=O)N(C)[C@@H](CC(C)C)C(=O)O[C@H](Cc2ccc(OC(F)(F)F)cc2)C(=O)N(C)[C@@H](CC(C)C)C(=O)O[C@H](C)C(=O)N1C [Compound 5-27] |  | < 100 nM | 50-200 ppm |  |
| CC(C)C[C@H]1C(=O)O[C@H](Cc2ccc(Sc3nnnn3C)cc2)C(=O)N(C)[C@@H](CC(C)C)C(=O)O[C@H](C)C(=O)N(C)[C@@H](CC(C)C)C(=O)O[C@H](Cc2ccccc2)C(=O)N(C)[C@@H](CC(C)C)C(=O)O[C@H](C)C(=O)N1C [Compound 27-27] |  | < 100 nM | 50-200 ppm |  |
| CC(C)C[C@H]1C(=O)O[C@H](Cc2ccc(N3CCOCC3)cc2)C(=O)N(C)[C@@H](CC(C)C)C(=O)O[C@H](CF)C(=O)N(C)[C@@H](CC(C)C)C(=O)O[C@H](Cc2ccc(N3CCOCC3)cc2)C(=O)N(C)[C@@H](CC(C)C)C(=O)O[C@H](CF)C(=O)N1C [Compound 6-39] |  |  | 50-200 ppm |  |
| CC(C)C[C@H]1C(=O)O[C@H](C)C(=O)N(C)[C@@H](CC(C)(C)C)C(=O)O[C@H](Cc2ccc(N3CCOCC3)cc2)C(=O)N(C)[C@@H](CC(C)C)C(=O)O[C@H](C)C(=O)N(C)[C@@H](CC(C)(C)C)C(=O)O[C@H](Cc2ccc(N3CCOCC3)cc2)C(=O)N1C [Compound 6-7] |  |  | 10-50 ppm |  |
| CC(C)C[C@H]1C(=O)O[C@H](Cc2ccc(N3CCOCC3)cc2)C(=O)N(C)[C@@H](CC(C)(C)C)C(=O)O[C@H](C)C(=O)N(C)[C@@H](CC(C)(C)C)C(=O)O[C@H](Cc2ccc(N3CCOCC3)cc2)C(=O)N(C)[C@@H](CC(C)C)C(=O)O[C@H](C)C(=O)N1C [Compound 6-8] |  |  | 10-50 ppm |  |
| CCC[C@H]1C(=O)O[C@H](C)C(=O)N(C)[C@@H](CC(C)(C)F)C(=O)O[C@H](Cc2ccc(C3CCOCC3)cc2)C(=O)N(C)[C@@H](CCC)C(=O)O[C@H](C)C(=O)N(C)[C@@H](CC(C)(C)F)C(=O)O[C@H](Cc2ccc(C3CCOCC3)cc2)C(=O)N1C [Compound 7-44] | < 100 nM | < 100 nM |  |  |
| CC(C)C[C@H]1C(=O)O[C@H](C)C(=O)N(C)[C@@H](CC(C)(C)F)C(=O)O[C@H](Cc2ccccc2)C(=O)N(C)[C@@H](CC(C)C)C(=O)O[C@H](C)C(=O)N(C)[C@@H](CC(C)(C)F)C(=O)O[C@H](Cc2ccccc2)C(=O)N1C [Compound 2-18] |  | < 100 nM |  | less than 0.1 μM |
| C[C@H]1OC(=O)[C@H](CC(C)(C)C)N(C)C(=O)[C@@H](Cc2ccc(C3CCOCC3)cc2)OC(=O)[C@H](CC(C)(C)F)N(C)C(=O)[C@@H](C)OC(=O)[C@H](CC(C)(C)C)N(C)C(=O)[C@@H](Cc2ccc(C3CCOCC3)cc2)OC(=O)[C@H](CC(C)(C)F)N(C)C1=O [Compound 7-32] |  |  | 10-50 ppm |  |
| CC[C@H]1OC(=O)[C@H](CC(C)C)N(C)C(=O)[C@@H](Cc2ccc(N3CCOCC3)cc2)OC(=O)[C@H](CC(C)C)N(C)C(=O)[C@@H](CC)OC(=O)[C@H](CC(C)C)N(C)C(=O)[C@@H](Cc2ccc(N3CCOCC3)cc2)OC(=O)[C@H](CC(C)C)N(C)C1=O [Compound 6-41] |  |  | 50-200 ppm |  |
| CC(C)C[C@H]1C(=O)O[C@H](Cc2ccc(N3CCOCC3)cc2)C(=O)N(C)[C@@H](CC(C)C)C(=O)O[C@H](C)C(=O)N(C)[C@@H](CC(C)(C)F)C(=O)O[C@H](Cc2ccc(N3CCOCC3)cc2)C(=O)N(C)[C@@H](CC(C)C)C(=O)O[C@H](C)C(=O)N1C [Compound 6-16] |  | < 100 nM | 10-50 ppm |  |
| CC(C)C[C@H]1C(=O)O[C@H](C)C(=O)N(C)[C@@H](CC(C)(C)F)C(=O)O[C@H](Cc2ccc(N3CCC(F)(F)C3)cc2)C(=O)N(C)[C@@H](CC(C)C)C(=O)O[C@H](C)C(=O)N(C)[C@@H](CC(C)(C)F)C(=O)O[C@H](Cc2ccc(N3CCC(F)(F)C3)cc2)C(=O)N1C [Compound 36-18] |  | < 100 nM | 50-200 ppm |  |
| C[C@H]1OC(=O)[C@H](CC(C)(C)F)N(C)C(=O)[C@@H](Cc2ccc(C(F)(F)F)cc2)OC(=O)[C@H](CC(C)(C)F)N(C)C(=O)[C@@H](C)OC(=O)[C@H](CC(C)(C)F)N(C)C(=O)[C@@H](Cc2ccc(C(F)(F)F)cc2)OC(=O)[C@H](CC(C)(C)F)N(C)C1=O [Compound 4-26] |  | < 100 nM | 50-200 ppm |  |
| CCC[C@H]1C(=O)O[C@H](C)C(=O)N(C)[C@@H](CC(C)(C)F)C(=O)O[C@H](Cc2ccc(N3CCOCC3)cc2)C(=O)N(C)[C@@H](CCC)C(=O)O[C@H](C)C(=O)N(C)[C@@H](CC(C)(C)F)C(=O)O[C@H](Cc2ccc(N3CCOCC3)cc2)C(=O)N1C [Compound 6-44] |  | < 100 nM |  |  |
| CC(C)C[C@H]1C(=O)O[C@H](Cc2ccccc2)C(=O)N(C)[C@@H](CC(C)(C)C)C(=O)O[C@H](C)C(=O)N(C)[C@@H](CC(C)C)C(=O)O[C@H](Cc2ccccc2)C(=O)N(C)[C@@H](CC(C)(C)C)C(=O)O[C@H](C)C(=O)N1C [Compound 2-6] |  | < 100 nM |  |  |
| CC(C)C[C@H]1C(=O)O[C@H](C)C(=O)N(C)[C@@H](CC(C)(C)F)C(=O)O[C@H](Cc2ccc(C3CCC(F)(F)CC3)cc2)C(=O)N(C)[C@@H](CC(C)C)C(=O)O[C@H](C)C(=O)N(C)[C@@H](CC(C)(C)F)C(=O)O[C@H](Cc2ccc(C3CCC(F)(F)CC3)cc2)C(=O)N1C [Compound 32-18] |  | < 100 nM |  |  |
| C[C@H]1OC(=O)[C@H](CC(C)(C)C)N(C)C(=O)[C@@H](Cc2ccc(N3CCOCC3)c(F)c2)OC(=O)[C@H](CC(C)(C)F)N(C)C(=O)[C@@H](C)OC(=O)[C@H](CC(C)(C)C)N(C)C(=O)[C@@H](Cc2ccc(N3CCOCC3)c(F)c2)OC(=O)[C@H](CC(C)(C)F)N(C)C1=O [Compound 30-32] |  | < 100 nM |  |  |
| CC(C)C[C@H]1C(=O)O[C@H](Cc2ccc(C3CCOCC3)cc2)C(=O)N(C)[C@@H](CC(C)C)C(=O)O[C@H](C)C(=O)N(C)[C@@H](CC(C)C)C(=O)O[C@H](Cc2ccc(C3CCOCC3)cc2)C(=O)N(C)[C@@H](CC(C)C)C(=O)O[C@H](C)C(=O)N1C [Compound 7-27] |  |  | 10-50 ppm |  |
| CC(C)C[C@H]1C(=O)O[C@H](Cc2ccc(N3CCOCC3)c(F)c2)C(=O)N(C)[C@@H](CC(C)C)C(=O)O[C@H](C)C(=O)N(C)[C@@H](CC(C)C)C(=O)O[C@H](Cc2ccc(N3CCOCC3)c(F)c2)C(=O)N(C)[C@@H](CC(C)C)C(=O)O[C@H](C)C(=O)N1C [Compound 30-27] |  | < 100 nM | 50-200 ppm | less than 0.1 μM |
| CC(C)C[C@H]1C(=O)O[C@H](Cc2ccccc2)C(=O)N(C)[C@@H](CC(C)C)C(=O)O[C@H](C)C(=O)N(C)[C@@H](CC(C)(C)C)C(=O)O[C@H](Cc2ccccc2)C(=O)N(C)[C@@H](CC(C)C)C(=O)O[C@H](C)C(=O)N1C [Compound 2-4] |  | < 100 nM |  |  |
| CC(C)C[C@H]1C(=O)O[C@H](C)C(=O)N(C)[C@@H](CC(C)(C)F)C(=O)O[C@H](Cc2ccc(F)cc2)C(=O)N(C)[C@@H](CC(C)C)C(=O)O[C@H](C)C(=O)N(C)[C@@H](CC(C)(C)F)C(=O)O[C@H](Cc2ccc(F)cc2)C(=O)N1C [Compound 3-18] |  | < 100 nM | 50-200 ppm |  |
| CC(C)C[C@H]1C(=O)O[C@H](C)C(=O)N(C)[C@@H](CC(C)(C)F)C(=O)O[C@H](Cc2ccc(N3CCC(F)(F)CC3)cc2)C(=O)N(C)[C@@H](CC(C)C)C(=O)O[C@H](C)C(=O)N(C)[C@@H](CC(C)(C)F)C(=O)O[C@H](Cc2ccc(N3CCC(F)(F)CC3)cc2)C(=O)N1C [Compound 35-18] | < 100 nM | < 100 nM |  |  |
